This is a noisy data set.
Test: amyloid nucleation score relative to library mode (yeast Sup35 reporter selection) (log enrichment difference); higher = more amyloid nucleation; sequences are the first 22 residues of the Bri2 peptide extended by up to 12 random residues
Details: random library (experiment): 1;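 active = nucleation score significantly above 0 at FDR 0.05; inactive = not significantly above 0 or absent from output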
Method: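 Random C-terminal extensions of the 22-aa Bri2 peptide by 12 NNK codons; premature stops give shorter extensions. Peptides were fused to the Sup35 nucleation domain in S. cerevisiae [psi-pin-] and selected on -ADE-URA plates for 7 d at 30 °C. The nucleation score is log(output/input), centred to the mode of each of 3 independent libraries (1 input, 3 technical output replicates), with duplicates merged. Sequences absent from the output ('random_non_nuc') were imputed with the library mode value, so they are given as censored (<). Nucleators are scores significantly >0 at FDR 0.05.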
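Further: [psi-pin-] Saccharomyces cerevisiae expressing SupN fusions, induced by 100 µM Cu2SO4, selected 7 d at 30 °C without adenine and uracil, scored by deep sequencing of output versus input.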

Sequence | amyloid nucleation score
EASNCFAIRHFENKFAVETLICAYFGSLMAFSNT | inactive
EASNCFAIRHFENKFAVETLICAYKDSKLVSRWL | inactive
EASNCFAIRHFENKFAVETLICAYKSL | 0.492
EASNCFAIRHFENKFAVETLICAYRGERTSFKIG | 3.99
EASNCFAIRHFENKFAVETLICAYRWATGLVRR | inactive
EASNCFAIRHFENKFAVETLICAYRWSWSAQRRG | inactive
EASNCFAIRHFENKFAVETLICAYSDCLRIVLHI | 1.22
EASNCFAIRHFENKFAVETLICAYSMTLFSNGVA | inactive
EASNCFAIRHFENKFAVETLICAYTDLSVPVA | inactive
EASNCFAIRHFENKFAVETLICAYTIPVNYCALE | 1.97
EASNCFAIRHFENKFAVETLICAYTMEFRNIS | inactive
EASNCFAIRHFENKFAVETLICAYWVRLWDARIS | inactive
EASNCFAIRHFENKFAVETLICCA | 2.42
EASNCFAIRHFENKFAVETLICCAASARSQTVGW | 7.51
EASNCFAIRHFENKFAVETLICCAEPKVKVRDRD | -0.45
EASNCFAIRHFENKFAVETLICCAER | 3.25
EASNCFAIRHFENKFAVETLICCAESSEDMRKRL | inactive
EASNCFAIRHFENKFAVETLICCAG | 2.96
EASNCFAIRHFENKFAVETLICCAL | 6.91
EASNCFAIRHFENKFAVETLICCALANALETAV | inactive
EASNCFAIRHFENKFAVETLICCALYSVN | 8.05
EASNCFAIRHFENKFAVETLICCANAIRRKMYQS | inactive

Sequence | amyloid nucleation score
EASNCFAIRHFENKFAVETLICCANPVGMFAGAR | 7.56
EASNCFAIRHFENKFAVETLICCANY | 7.25
EASNCFAIRHFENKFAVETLICCAQKCDWSSPAG | 6.93
EASNCFAIRHFENKFAVETLICCARIVYLHLDDM | inactive
EASNCFAIRHFENKFAVETLICCARRPSRWGLLR | inactive
EASNCFAIRHFENKFAVETLICCARSIRGRCTEY | 4.23
EASNCFAIRHFENKFAVETLICCASLDWVDDVAL | 8.16
EASNCFAIRHFENKFAVETLICCASMRHSMLLLI | 0.693
EASNCFAIRHFENKFAVETLICCAT | 4.49
EASNCFAIRHFENKFAVETLICCAYNPEDVYVWE | 9.11
EASNCFAIRHFENKFAVETLICCCCVFRVVARYG | 1.39
EASNCFAIRHFENKFAVETLICCCCYARPDVPSW | 6.3
EASNCFAIRHFENKFAVETLICCCEGKLMGAWVA | inactive
EASNCFAIRHFENKFAVETLICCCFVLPFVWAGK | 5.41
EASNCFAIRHFENKFAVETLICCCGEGRETKLSL | 6.28
EASNCFAIRHFENKFAVETLICCCGIECSIGCRG | inactive
EASNCFAIRHFENKFAVETLICCCGTNTKFHDRT | 7.59
EASNCFAIRHFENKFAVETLICCCGWPGVAWWTA | 6.95
EASNCFAIRHFENKFAVETLICCCKYKHTPRTIL | inactive
EASNCFAIRHFENKFAVETLICCCLDWST | 7.73
EASNCFAIRHFENKFAVETLICCCPDFYMFEVL | 3.38
EASNCFAIRHFENKFAVETLICCCRVGVAIVW | 0.372

Same assay, conditions: random library (experiment): 2

Sequence | amyloid nucleation score
EASNCFAIRHFENKFAVETLICAYDRCCLRLSWW | inactive
EASNCFAIRHFENKFAVETLICAYECRDFVLVCL | 4.02
EASNCFAIRHFENKFAVETLICAYENRWCSVRSQ | inactive
EASNCFAIRHFENKFAVETLICAYFELNICVRLC | 3.07
EASNCFAIRHFENKFAVETLICAYRCSDRSVTVA | -0.604
EASNCFAIRHFENKFAVETLICAYRGIYHFYSRR | inactive
EASNCFAIRHFENKFAVETLICAYVIRCHKFSVV | inactive
EASNCFAIRHFENKFAVETLICAYWSGLCAIRS | 0
EASNCFAIRHFENKFAVETLICAYYLETRVFGSY | inactive
EASNCFAIRHFENKFAVETLICCADSSYNACIVF | 5.49
EASNCFAIRHFENKFAVETLICCAICTQTGCRSA | 8.56
EASNCFAIRHFENKFAVETLICCAILLLYGIVHR | 0.589
EASNCFAIRHFENKFAVETLICCAKQYLIYPEAC | 4.5
EASNCFAIRHFENKFAVETLICCAKSFKRFFLWV | inactive
EASNCFAIRHFENKFAVETLICCALLCYV | 6.57
EASNCFAIRHFENKFAVETLICCALNIVKMPIVL | 6.18

Sequence | amyloid nucleation score
EASNCFAIRHFENKFAVETLICCAQKQCGQWLWL | 0.644
EASNCFAIRHFENKFAVETLICCARGHNLQMESW | 6.7
EASNCFAIRHFENKFAVETLICCAVHGLEPIGCQ | 3.94
EASNCFAIRHFENKFAVETLICCAYIILKSVSHW | 0.55
EASNCFAIRHFENKFAVETLICCCAKDKEHLEG | 7.67
EASNCFAIRHFENKFAVETLICCCCDHFYHVKNV | 6.35
EASNCFAIRHFENKFAVETLICCCDHLIFFDVCI | inactive
EASNCFAIRHFENKFAVETLICCCGIFNHYEMVG | 7.87
EASNCFAIRHFENKFAVETLICCCHHWDYKVIYF | inactive
EASNCFAIRHFENKFAVETLICCCLLQIYSHMSG | inactive
EASNCFAIRHFENKFAVETLICCCLSRFMHRTAV | inactive
EASNCFAIRHFENKFAVETLICCCMCLFRFVTVA | 3.51
EASNCFAIRHFENKFAVETLICCCQGYSAFVLQN | inactive
EASNCFAIRHFENKFAVETLICCCRGRRMKEVEW | inactive
EASNCFAIRHFENKFAVETLICCCRHPLVFGVAR | inactive

Same assay, conditions: random library (experiment): 3

Sequence | amyloid nucleation score
EASNCFAIRHFENKFAVETLICAYFATWDDVSA | inactive
EASNCFAIRHFENKFAVETLICAYFGMCERKAVS | inactive
EASNCFAIRHFENKFAVETLICAYHENWPGSRAV | inactive
EASNCFAIRHFENKFAVETLICAYLQRLNTRHMA | inactive
EASNCFAIRHFENKFAVETLICAYNKPPPEWCGA | inactive
EASNCFAIRHFENKFAVETLICAYPDTMNVRSIL | inactive
EASNCFAIRHFENKFAVETLICAYPSLEYMFVSK | 3.77
EASNCFAIRHFENKFAVETLICAYQSRSD | inactive
EASNCFAIRHFENKFAVETLICAYVMMNYWAQWV | inactive
EASNCFAIRHFENKFAVETLICAYWCHVY | inactive
EASNCFAIRHFENKFAVETLICCAAVLSYLHDVR | 5.77
EASNCFAIRHFENKFAVETLICCAAYWNGKPGRD | 8.33
EASNCFAIRHFENKFAVETLICCAEYEHYVGSCK | inactive
EASNCFAIRHFENKFAVETLICCAFMRRDLCANV | 3.02
EASNCFAIRHFENKFAVETLICCAGHSIDGMETE | 7.73
EASNCFAIRHFENKFAVETLICCAGLPARGNGPW | 8.27
EASNCFAIRHFENKFAVETLICCAGNRVYAAMRM | 4.9
EASNCFAIRHFENKFAVETLICCAGSKLAGRW | 6.11
EASNCFAIRHFENKFAVETLICCAHVCGFDYRVL | 2.29
EASNCFAIRHFENKFAVETLICCAINPVTIRQRG | 8.71
EASNCFAIRHFENKFAVETLICCAMNFKPICLVE | 5.91

Sequence | amyloid nucleation score
EASNCFAIRHFENKFAVETLICCANGHMTQAVEV | inactive
EASNCFAIRHFENKFAVETLICCANSDGRNSGGW | 7.41
EASNCFAIRHFENKFAVETLICCARMPNIGGSGC | 6.16
EASNCFAIRHFENKFAVETLICCARRDVGDVG | 4.4
EASNCFAIRHFENKFAVETLICCARVGPFCWCAS | 7.77
EASNCFAIRHFENKFAVETLICCAVGTALNYTLA | 7.7
EASNCFAIRHFENKFAVETLICCAVRRYPWEIV | 1.96
EASNCFAIRHFENKFAVETLICCAWDVC | 9.35
EASNCFAIRHFENKFAVETLICCAYSRQGPAGIA | 6.98
EASNCFAIRHFENKFAVETLICCAYTPLFNRIRC | 4.94
EASNCFAIRHFENKFAVETLICCCEKNRHKCLQK | 8.28
EASNCFAIRHFENKFAVETLICCCGGVTESAACG | 6.99
EASNCFAIRHFENKFAVETLICCCIF | 8.82
EASNCFAIRHFENKFAVETLICCCILSTYGSVSW | inactive
EASNCFAIRHFENKFAVETLICCCLIRRTTPVGL | inactive
EASNCFAIRHFENKFAVETLICCCLRCAAKLSLV | inactive
EASNCFAIRHFENKFAVETLICCCMLCIYYQSIV | inactive
EASNCFAIRHFENKFAVETLICCCNRHVLLMPRD | 2.31
EASNCFAIRHFENKFAVETLICCCQSKVSVYYVR | 2.66
EASNCFAIRHFENKFAVETLICCCSFGSR | 9.72

Source: the supplement of paper PMC12067230
